Measurements as given in the supplement of paper PMC10126150.
Values marked as one replicate rest on one cluster of the flow cell; about a third of the high ones do not repeat.

These sequences were tested on ATP (assay: switch fluorescence ratio, 500 uM ATP over buffer (Cy3 cluster intensity, sum of 5 cycles each) (fold (ratio)); higher = stronger signal-on switching upon ATP binding; sequences stand for … in TCGTCGGCAGCGTCAGATGTGTATAAGAGACAGTTTTTTTTTTTTTTTTTTTTTTTTT…TC). Conditions: aptamer strand: ATP DNA aptamer (quencher-CACCTGGGGGAGTATTGCGGAGGAAGG + anchor), 100 nM annealed; ATP concentration: 500 uM; one replicate.
Method in brief: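 Cy3-labelled switching-strand clusters on a modified Illumina MiSeq flow-cell were annealed to 100 nM quencher-labelled ATP aptamer, imaged in selection buffer, then imaged after 15 min with 500 uM ATP at 22 °C. Five buffer/ATP cycles ran, with NaOH stripping and re-annealing between them. The fluorescence ratio is summed target-cycle over summed buffer-cycle Cy3 intensity per cluster, averaged per switch-domain sequence. Clusters outside 100-1000 RFU were excluded.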
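Further: ATP exposure 15 min at 22 °C before imaging.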

Sequence	switch fluorescence ratio
CGGTTATC	1.61
CGGTTCAACT	0.979
CGGTTCATAG	1.03
CGGTTCATGG	0.993
CGGTTCCGTT	0.981
CGGTTTTAGA	1.03
CGTAACGCTT	1.06
CGTAACTGAG	1
CGTAAGTAGC	1.03
CGTAATGTTC	1.22
CGTACCAGGA	1.05
CGTACCGTAG	1.07
CGTACGAGGC	1.08
CGTACGTAAG	1.03
CGTACTAGGA	1.02
CGTACTGGTT	0.992
CGTACTGTTT	0.995
CGTACTTCGT	0.989
CGTAGAGCGT	0.975
CGTAGCGTGT	0.999
CGTAGCTGGT	1.06
CGTAGGCGGG	1.01
CGTAGGGCAT	1.02
CGTAGTAACC	1.44
CGTATAAATG	0.961
CGTATCCACG	1.05

Sequence	switch fluorescence ratio
CGTATCCAGG	1.2
CGTATGCCTC	0.949
CGTATGCGT	0.983
CGTATTCGGG	0.982
CGTCACCAGC	0.989
CGTCAGGTTA	1.07
CGTCATCA	1.01
CGTCATGGAA	1.04
CGTCCAAAAT	3.38
CGTCCAAGCC	1.31
CGTCCACCTC	1.08
CGTCCATTAG	1.06
CGTCCCCA	1.16
CGTCCGTTCT	1.05
CGTCCTTTCT	1.07
CGTCGATGTT	0.983
CGTCGCTTGG	1.04
CGTCGGAACC	1
CGTCGGTGCG	0.959
CGTCGTATGC	1.04
CGTCGTGGTT	1.03
CGTCTAACTA	1
CGTCTACTTA	1.03
CGTCTAGGCA	1.08
CGTCTCAAGG	1.02
CGTCTGCCAA	1.54

Sequence	switch fluorescence ratio
CGTCTGCTTA	1.26
CGTCTGGCTT	1.14
CGTCTTGCTC	1.02
CGTCTTTAGC	0.958
CGTGAAACGC	1.01
CGTGACGGGA	0.986
CGTGACTCGT	0.994
CGTGAGTATA	0.951
CGTGATATGT	0.955
CGTGATTAT	1.02
CGTGATTTAC	1.13
CGTGCAAGTG	1
CGTGCACAGA	0.994
CGTGCACTGC	1.13
CGTGCAGAGT	0.973
CGTGCCACGG	0.996
CGTGCCCGCA	1.16
CGTGCCGGTC	1.06
CGTGCCTGT	1.07
CGTGCTAGGA	1.01
CGTGCTGATT	1
CGTGGACCAG	0.982
CGTGGATACA	1
CGTGGCGCAT	1.02
CGTGGCGCGC	1.01
CGTGGCGGCG	0.946

Sequence	switch fluorescence ratio
CGTGGCTAA	1
CGTGGGGACC	0.959
CGTGGGTCAC	1.01
CGTGGGTTTT	0.988
CGTGGTGAGG	0.974
CGTGGTTTCG	1.03
CGTGTAGTAC	1.19
CGTGTAGTTC	1.05
CGTGTATCAA	1.04
CGTGTATGGA	0.997
CGTGTCGCCG	1.01
CGTGTGTGAC	1.06
CGTGTTATCG	0.966
CGTGTTGTCA	1.01
CGTTAAAACG	1.01
CGTTAACGAA	1.01
CGTTAACGTA	0.985
CGTTAATGTG	1.02
CGTTACAGTA	1.07
CGTTACGGT	0.985
CGTTACTTGC	0.99
CGTTAGAACA	1.01
CGTTAGACAT	0.986
CGTTAGATAT	0.968
CGTTAGCGCG	0.979
CGTTAGGACT	0.972

Sequence	switch fluorescence ratio
CGTTAGGGCG	1.05
CGTTATAACA	1
CGTTATACC	1.19
CGTTATCCAC	1.07
CGTTATGTTT	1.04
CGTTCGACGT	1.01
CGTTCGATGG	1.01
CGTTCGGTTG	1.01
CGTTCTAAGT	1.01
CGTTCTATG	0.972
CGTTCTCAGT	0.917
CGTTCTTAGA	1.01
CGTTGACGA	0.976
CGTTGACTTT	0.975
CGTTGCAGCG	1.02
CGTTGCATGT	0.958
CGTTGCGGTT	0.99
CGTTGGGACT	1
CGTTGTTAAT	1
CGTTGTTCCA	0.981
CGTTGTTGTG	1.01
CGTTTAGCTG	1.11
CGTTTCGCGC	1.02
CGTTTGCAAC	1.3
CGTTTGCCT	0.986
CGTTTGCTTG	1.04

Sequence	switch fluorescence ratio
CGTTTGGTTG	0.928
CGTTTTGGA	1.03
CGTTTTTAGC	0.986
CTAAAAATTT	1.06
CTAAAAGAGT	1.04
CTAAACAGCG	0.978
CTAAACCATC	1.06
CTAAAGATTA	1.02
CTAAAGTTTG	1
CTAAATAGAT	0.913
CTAAATAGT	1.04
CTAACAGCCT	1.04
CTAACAGTAT	1.01
CTAACCGGCA	1.13
CTAACGATT	0.99
CTAAG	0.989
CTAAGAATTG	0.975
CTAAGATAA	1.01
CTAAGCATGT	1.77
CTAAGCCATG	1.13
CTAAGCTTGG	1.06
CTAAGGAGTC	0.982
CTAAGGGGA	1.02
CTAAGGGGGC	0.984
CTAAGTATCA	1.07
CTAAGTGTTT	0.981

Sequence	switch fluorescence ratio
CTAATCACAA	1.03
CTAATGGG	1.01
CTAATGGTCG	0.972
CTAATTATG	1.05
CTAATTCAGT	0.983
CTACAGTTTA	1
CTACATGTAT	1.02
CTACCAAGTG	1.04
CTACCCTTGC	1.62
CTACCGCCGG	1.07
CTACCGCCGT	1.07
CTACCGTCCT	1.11
CTACGGACGG	1.49
CTACGGATC	1.48
CTACGTGGC	1.5
CTACTACCCT	1.16
CTACTACG	1.05
CTACTACGAG	1.04
CTACTAGGTT	1.01
CTACTCGTGG	0.973
CTACTGGGA	1.01
CTACTTGCAC	1.26
CTACTTTCCG	1.06
CTAGAACGAA	1
CTAGAATGGG	0.979
CTAGATAGTT	1

Sequence	switch fluorescence ratio
CTAGATATGG	1.05
CTAGCATCCC	1.13
CTAGCCGCCA	1.19
CTAGCGCCGT	1.02
CTAGCGCGTT	0.979
CTAGCTTATC	1.19
CTAGCTTCCC	1.38
CTAGGACGCA	1.47
CTAGGCAGCA	1.02
CTAGGTCCAT	1.01
CTAGTAAGCC	1
CTAGTCCAT	0.978
CTAGTCGAGG	0.974
CTAGTGTAGA	1.04
CTAGTGTCAG	0.995
CTAGTTACC	1.01
CTATACCAG	0.959
CTATAGCTGA	1.07
CTATATACAG	1.05
